This is one part of the list. The full chains were built here from the parent and the listed change. Values near 0.05 are background.
B1: TEV protease; numbered along this chain (parent)
chain: MGESLFKGPRDYNPISSSICHLTNESDGHTTSLYGIGFGPFIITNKHLFRRNNGTLVVQSLHGVFKVKDTTTLQQHLVDGRDMIIIRMPKDFPPFPQKLKFREPQREERICLVTTNFQTKSMSSMVSDTSCTFPSGDGIFWKHWIQTKDGQCGSPLVSTRDGFIVGIHSASNFTNTNNYFTSVPKNFMELLTNQEAQQWVSGWRLNADSVLWGGHKVFMVKPEEPFQPVKEATQL

Variants of: B1
Assay: raw area under fraction-flipped curve 0-4 h after induction (AUC4h, not background-subtracted), DNA-recorder readout of cleavage of the substrate (dimensionless); higher = more cleavage of the substrate by the protease variant
Conditions: temperature: 34 °C; time window: 0-4 h after rhamnose induction
Procedure: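 In vivo DNA recorder in E. coli TOP10(DE3) ΔrhaA at 34 °C. Each TEVp single-site mutant (parent TEVp 0) is paired with a single-site variant of the 7-mer TEVs (canonical ENLYFQ|S). The substrate sits between flexible linkers in a Bxb1-sfGFP-TEVs-SsrA fusion, so cleavage stabilises Bxb1 and speeds flipping of a recombination array, read by NGS. The value is the raw area under the fraction-flipped curve over 0-4 h after rhamnose induction (AUC4h), with ≥20 reads per time point. It is not background-subtracted; inactive controls average about 0.047.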
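Note: Bxb1 expression induced with 0.2% (w/v) L-rhamnose at OD600 near 0.5, cultures sampled hourly, flipped fraction per protease–substrate barcode pair counted by paired-end Illumina sequencing.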

## MEESLFKGPRDYNPISSSICHLTNESDGHTTSLYGIGFGPFIITNKHLFRRNNGTLVVQSLHGVFKVKDTTTLQQHLVDGRDMIIIRMPKDFPPFPQKLKFREPQREERICLVTTNFQTKSMSSMVSDTSCTFPSGDGIFWKHWIQTKDGQCGSPLVSTRDGFIVGIHSASNFTNTNNYFTSVPKNFMELLTNQEAQQWVSGWRLNADSVLWGGHKVFMVKPEEPFQPVKEATQL [G2E]
  area with substrate ENLAFQS: 0.076
  area with substrate ENLDFQS: 0.0653
  area with substrate ENLFFQS: 0.103
  area with substrate ENLGFQS: 0.0691
  area with substrate ENLHFQS: 0.0725
  area with substrate ENLIFQS: 0.0899
  area with substrate ENLKFQS: 0.0796
  area with substrate ENLLFQS: 0.0629
  area with substrate ENLNFQS: 0.0655
  area with substrate ENLPFQS: 0.0473
  area with substrate ENLQFQS: 0.0482
  area with substrate ENLRFQS: 0.0781
  area with substrate ENLSFQS: 0.0511
  area with substrate ENLTFQS: 0.0757
  area with substrate ENLVFQS: 0.072
  area with substrate ENLWFQS: 0.066

## MGESLFQGPRDYNPISSSICHLTNESDGHTTSLYGIGFGPFIITNKHLFRRNNGTLVVQSLHGVFKVKDTTTLQQHLVDGRDMIIIRMPKDFPPFPQKLKFREPQREERICLVTTNFQTKSMSSMVSDTSCTFPSGDGIFWKHWIQTKDGQCGSPLVSTRDGFIVGIHSASNFTNTNNYFTSVPKNFMELLTNQEAQQWVSGWRLNADSVLWGGHKVFMVKPEEPFQPVKEATQL [K7Q]
  area with substrate ENLAFQS: 0.063
  area with substrate ENLDFQS: 0.065
  area with substrate ENLEFQS: 0.0552
  area with substrate ENLFFQS: 0.0892
  area with substrate ENLHFQS: 0.0708
  area with substrate ENLIFQS: 0.078
  area with substrate ENLKFQS: 0.0821
  area with substrate ENLLFQS: 0.0775
  area with substrate ENLMFQS: 0.0799
  area with substrate ENLNFQS: 0.0667
  area with substrate ENLPFQS: 0.0557
  area with substrate ENLSFQS: 0.0606
  area with substrate ENLVFQS: 0.0858
  area with substrate ENLWFQS: 0.208

## MGESLFKGMRDYNPISSSICHLTNESDGHTTSLYGIGFGPFIITNKHLFRRNNGTLVVQSLHGVFKVKDTTTLQQHLVDGRDMIIIRMPKDFPPFPQKLKFREPQREERICLVTTNFQTKSMSSMVSDTSCTFPSGDGIFWKHWIQTKDGQCGSPLVSTRDGFIVGIHSASNFTNTNNYFTSVPKNFMELLTNQEAQQWVSGWRLNADSVLWGGHKVFMVKPEEPFQPVKEATQL [P9M]
  area with substrate ENLAFQS: 0.039
  area with substrate ENLCFQS: 0.0746
  area with substrate ENLDFQS: 0.0611
  area with substrate ENLFFQS: 0.0842
  area with substrate ENLHFQS: 0.0673
  area with substrate ENLIFQS: 0.101
  area with substrate ENLKFQS: 0.0893
  area with substrate ENLPFQS: 0.0718
  area with substrate ENLSFQS: 0.0437
  area with substrate ENLWFQS: 0.0779

## MGESLFKGWRDYNPISSSICHLTNESDGHTTSLYGIGFGPFIITNKHLFRRNNGTLVVQSLHGVFKVKDTTTLQQHLVDGRDMIIIRMPKDFPPFPQKLKFREPQREERICLVTTNFQTKSMSSMVSDTSCTFPSGDGIFWKHWIQTKDGQCGSPLVSTRDGFIVGIHSASNFTNTNNYFTSVPKNFMELLTNQEAQQWVSGWRLNADSVLWGGHKVFMVKPEEPFQPVKEATQL [P9W]
  area with substrate ENLAFQS: 0.0669
  area with substrate ENLCFQS: 0.0535
  area with substrate ENLDFQS: 0.0538
  area with substrate ENLFFQS: 0.0821
  area with substrate ENLGFQS: 0.0766
  area with substrate ENLHFQS: 0.053
  area with substrate ENLIFQS: 0.0792
  area with substrate ENLKFQS: 0.067
  area with substrate ENLLFQS: 0.0854
  area with substrate ENLMFQS: 0.0854
  area with substrate ENLNFQS: 0.071
  area with substrate ENLPFQS: 0.0531
  area with substrate ENLSFQS: 0.0598
  area with substrate ENLWFQS: 0.0672

## MGESLFKGPNDYNPISSSICHLTNESDGHTTSLYGIGFGPFIITNKHLFRRNNGTLVVQSLHGVFKVKDTTTLQQHLVDGRDMIIIRMPKDFPPFPQKLKFREPQREERICLVTTNFQTKSMSSMVSDTSCTFPSGDGIFWKHWIQTKDGQCGSPLVSTRDGFIVGIHSASNFTNTNNYFTSVPKNFMELLTNQEAQQWVSGWRLNADSVLWGGHKVFMVKPEEPFQPVKEATQL [R10N]
  area with substrate ENLAFQS: 0.0582
  area with substrate ENLCFQS: 0.0546
  area with substrate ENLDFQS: 0.0615
  area with substrate ENLFFQS: 0.0791
  area with substrate ENLHFQS: 0.0564
  area with substrate ENLKFQS: 0.0749
  area with substrate ENLLFQS: 0.0681
  area with substrate ENLNFQS: 0.0701
  area with substrate ENLPFQS: 0.0503
  area with substrate ENLRFQS: 0.0764
  area with substrate ENLSFQS: 0.0599
  area with substrate ENLTFQS: 0.0936
  area with substrate ENLWFQS: 0.0802

## MGESLFKGPRMYNPISSSICHLTNESDGHTTSLYGIGFGPFIITNKHLFRRNNGTLVVQSLHGVFKVKDTTTLQQHLVDGRDMIIIRMPKDFPPFPQKLKFREPQREERICLVTTNFQTKSMSSMVSDTSCTFPSGDGIFWKHWIQTKDGQCGSPLVSTRDGFIVGIHSASNFTNTNNYFTSVPKNFMELLTNQEAQQWVSGWRLNADSVLWGGHKVFMVKPEEPFQPVKEATQL [D11M]
  area with substrate ENLAFQS: 0.0644
  area with substrate ENLCFQS: 0.0736
  area with substrate ENLDFQS: 0.0586
  area with substrate ENLFFQS: 0.0652
  area with substrate ENLHFQS: 0.0628
  area with substrate ENLKFQS: 0.0654
  area with substrate ENLLFQS: 0.073
  area with substrate ENLMFQS: 0.0683
  area with substrate ENLNFQS: 0.0678
  area with substrate ENLPFQS: 0.0664
  area with substrate ENLQFQS: 0.0613
  area with substrate ENLRFQS: 0.0635
  area with substrate ENLSFQS: 0.0767
  area with substrate ENLTFQS: 0.0648
  area with substrate ENLVFQS: 0.0405
  area with substrate ENLWFQS: 0.0683

## MGESLFKGPRDDNPISSSICHLTNESDGHTTSLYGIGFGPFIITNKHLFRRNNGTLVVQSLHGVFKVKDTTTLQQHLVDGRDMIIIRMPKDFPPFPQKLKFREPQREERICLVTTNFQTKSMSSMVSDTSCTFPSGDGIFWKHWIQTKDGQCGSPLVSTRDGFIVGIHSASNFTNTNNYFTSVPKNFMELLTNQEAQQWVSGWRLNADSVLWGGHKVFMVKPEEPFQPVKEATQL [Y12D]
  area with substrate ENLAFQS: 0.0547
  area with substrate ENLCFQS: 0.0756
  area with substrate ENLDFQS: 0.0523
  area with substrate ENLFFQS: 0.0734
  area with substrate ENLGFQS: 0.05
  area with substrate ENLHFQS: 0.0833
  area with substrate ENLKFQS: 0.0906
  area with substrate ENLLFQS: 0.0764
  area with substrate ENLNFQS: 0.0616
  area with substrate ENLPFQS: 0.0546
  area with substrate ENLQFQS: 0.0529
  area with substrate ENLSFQS: 0.0567
  area with substrate ENLVFQS: 0.0893
  area with substrate ENLWFQS: 0.0708

## MGESLFKGPRDENPISSSICHLTNESDGHTTSLYGIGFGPFIITNKHLFRRNNGTLVVQSLHGVFKVKDTTTLQQHLVDGRDMIIIRMPKDFPPFPQKLKFREPQREERICLVTTNFQTKSMSSMVSDTSCTFPSGDGIFWKHWIQTKDGQCGSPLVSTRDGFIVGIHSASNFTNTNNYFTSVPKNFMELLTNQEAQQWVSGWRLNADSVLWGGHKVFMVKPEEPFQPVKEATQL [Y12E]
  area with substrate ENLAFQS: 0.0678
  area with substrate ENLCFQS: 0.0642
  area with substrate ENLDFQS: 0.0628
  area with substrate ENLEFQS: 0.0704
  area with substrate ENLFFQS: 0.0811
  area with substrate ENLHFQS: 0.0531
  area with substrate ENLIFQS: 0.0775
  area with substrate ENLKFQS: 0.0781
  area with substrate ENLLFQS: 0.0696
  area with substrate ENLNFQS: 0.0697
  area with substrate ENLPFQS: 0.11
  area with substrate ENLSFQS: 0.0684
  area with substrate ENLVFQS: 0.0812
  area with substrate ENLWFQS: 0.0669

## MGESLFKGPRDYAPISSSICHLTNESDGHTTSLYGIGFGPFIITNKHLFRRNNGTLVVQSLHGVFKVKDTTTLQQHLVDGRDMIIIRMPKDFPPFPQKLKFREPQREERICLVTTNFQTKSMSSMVSDTSCTFPSGDGIFWKHWIQTKDGQCGSPLVSTRDGFIVGIHSASNFTNTNNYFTSVPKNFMELLTNQEAQQWVSGWRLNADSVLWGGHKVFMVKPEEPFQPVKEATQL [N13A]
  area with substrate ENLAFQS: 0.063
  area with substrate ENLCFQS: 0.0747
  area with substrate ENLDFQS: 0.0602
  area with substrate ENLEFQS: 0.0714
  area with substrate ENLFFQS: 0.0749
  area with substrate ENLGFQS: 0.0955
  area with substrate ENLHFQS: 0.0642
  area with substrate ENLKFQS: 0.0757
  area with substrate ENLLFQS: 0.0723
  area with substrate ENLNFQS: 0.063
  area with substrate ENLPFQS: 0.051
  area with substrate ENLQFQS: 0.0663
  area with substrate ENLRFQS: 0.0732
  area with substrate ENLSFQS: 0.0524
  area with substrate ENLTFQS: 0.0383
  area with substrate ENLWFQS: 0.0713
